# From PubChem BioAssay AID686979 (National Center for Advancing Translational Sciences (NCATS), 2013)
# The campaign covered roughly 420,000 compounds. About 50,000 (12%) were called active. The inconclusive results got no clear call from the source; some entries with a clear call stand among them for comparison. Calls follow the shape of the dose curve; as a rule, active = well fitted inhibition curve with a large enough effect; inconclusive = small, poorly fitted or top-dose-only effect; inactive = flat fitted curve, though single readings scatter. Potencies of inconclusive entries are left out as doubtful fits.
# Assay: qHTS for Inhibitors of human tyrosyl-DNA phosphodiesterase 1 (TDP1): qHTS in cells in presence of CPT; also: nearly all actives have a fitted effect of over 55% in size
# Conditions: chicken DT40 Tdp1-/-;hTDP1 cells + 20 nM CPT, ATP luminescence, 48 h; activity change, negative = growth inhibition: at 46.2 µM (top of the series) unless noted
# Outline: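 Chicken DT40 Tdp1-/- cells stably complemented with human TDP1 were seeded at 400 cells/well in medium containing 20 nM camptothecin, exposed to pin-transferred compounds, and grown at 37 °C for at least 48 hr. Viability was read as ATP luminescence.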
# % is scaled to controls: 0 for no effect and ±100 for the full control effect; potency is read from the fitted curve at half-maximal effect; tags tell the direction and shape of the fitted curve.
SMILES,"activity change, negative = growth inhibition",Potency
O=C(O)/C=C\c1cn(-c2ccccc2)nc1-c1cc2ccccc2o1,inactive: 0.0973%,–
Cc1cccc(-n2c(SCc3cc(=O)n4ccsc4n3)nc3ccccc32)c1,–,active: 13 µM
COc1cc(C=C2CCC/C(=C\c3ccc(O)c(OC)c3)C2=O)ccc1O,–,active: 3.35 µM
COc1ccccc1C(=O)N/C(=C/c1ccc(Br)cc1)C(=O)NCCCn1ccnc1,–,"inconclusive [inhibitor, single point]"
Cc1cc(C(=O)N/N=C/c2ccc([N+](=O)[O-])s2)n[nH]1,–,active: 5.8 µM
Cn1c(=O)c2c(SCc3cccnc3)nc(C3CC3)nc2n(C)c1=O,inactive: -21.3%,–
CCCCN1C(=O)C(C)=C(C)C1OCCc1ccc(OC)c(OC)c1 (stereo unspecified),–,"inconclusive [inhibitor, single point]"
CCOC(=O)C1=CN(Cc2cccc(F)c2)S(=O)(=O)N(CC)C1c1ccc(F)c(Cl)c1 (stereo unspecified),–,"inconclusive [inhibitor, single point]"
CSC1=NC=C(C#N)C2=NC(c3ccc(Cl)cc3)NN12 (stereo unspecified),–,"inconclusive [inhibitor, single point]"
CCN(CC)c1ccc(/C=C/c2cc(Cl)nc3ccccc23)cc1,–,"inconclusive [inhibitor, single point]"
CCOc1ccc(/C=N/NC(=O)c2cc(-c3ccccc3)nc3ccccc23)cc1O,–,"inconclusive [inhibitor, full curve, poor fit]"
COc1ccc(CN2CCNC(=O)C2CC(=O)NCC(C)(C)N2CCOCC2)cc1C (stereo unspecified),inactive: 4.8%,–
CCc1nc2ccc(C(=O)NCc3cccs3)cn2c1N(CCC(C)C)CCN(C)C,–,"inconclusive [inhibitor, single point]"
COc1ccc(CN(C2CCCCC2C)S(=O)(=O)c2ccc(S(=O)(=O)N(C)C)cc2)cc1OC (stereo unspecified),–,active: 16.4 µM
Cc1ccc(NC(=O)NC2CC(=O)N(c3ccc4c(c3)OCCO4)C2)cc1C (stereo unspecified),–,"inconclusive [inhibitor, single point]"
O=C(NN=C(Cc1ccccc1)Cc1ccccc1)C1CC1,inactive: -6.23%,–
CC1CCc2nc(N)c(C#N)c(-c3cccnc3)c2C1 (stereo unspecified),–,"inconclusive [inhibitor, full curve]"
C/C(CC1(O)C(=O)N(C)c2ccccc21)=N\O (stereo unspecified),inactive: -7.32%,–
CCCN1CCc2c(sc3nc(SCC)n(-c4ccc(OC)cc4)c(=O)c23)C1,–,"inconclusive [inhibitor, single point]"
CC(=O)c1c(C)nc(-c2ccc(OCC(=O)Nc3ccccc3)cc2)n1O,inactive: 0.961%,–
O=C1c2cccc3c([N+](=O)[O-])ccc(c23)C(=O)N1Cc1cccnc1,–,active: 3.66 µM
COc1cc2c(cc1OC)C(c1ccccc1F)OC(=O)C2 (stereo unspecified),inactive: -9.38%,–
COc1ccc(-c2cc(=O)n3[nH]cnc3n2)cc1,inactive: 0.0428%,–

SMILES,"activity change, negative = growth inhibition",Potency
O=C(CCC(=O)N1CC2CCCN2c2ccccc21)NCc1ccccc1Cl (stereo unspecified),–,"inconclusive [inhibitor, partial curve]"
COc1ccc(C(=O)Nc2ccccc2C(=O)OCc2cc(=O)n3c4c(sc3n2)CCCC4)cc1,–,"inconclusive [inhibitor, single point]"
CC1CCCN(S(=O)(=O)c2cc3c(cc2Cl)NC(=O)CO3)C1 (stereo unspecified),–,"inconclusive [inhibitor, single point]"
CC(=O)N(Cc1ccc(F)cc1)C1=C(NCc2ccccc2)C(=O)c2ccccc2C1=O,–,active: 1.58 µM
C=CCN1CN(S(=O)(=O)c2cccc(Cl)c2)c2nc3ccccc3nc21,–,"inconclusive [inhibitor, single point]"
CC(C)C1C(=O)N(Cc2cn(Cc3ccco3)nn2)CCS(=O)(=O)N1Cc1ccc(-c2ccc(Cl)c(Cl)c2)cc1 (stereo unspecified),–,active: 4.61 µM
Cc1nnc(NC(=O)CSc2nccn2-c2cccc(Cl)c2)s1,inactive: 5.42%,–
CC(=O)Nc1ccc(S(=O)(=O)N2CCCN(S(=O)(=O)c3ccc(C)cc3)CC2)cc1,–,"inconclusive [inhibitor, partial curve]"
COc1cc(-c2nc(-c3ccc(Br)o3)no2)cc(OC)c1OC,–,"inconclusive [inhibitor, single point]"
Cc1nc2c(c(C)c1CCC(=O)Nc1cccc(C(F)(F)F)c1)c(=O)n(C)c(=O)n2C,–,"inconclusive [inhibitor, single point]"
CCCCN(C)C(=O)C1CCN(Cc2cccc(OCc3ccccc3)c2)CC1,–,"inconclusive [inhibitor, single point]"
CCOC(=O)N1CCN(C(=O)CSCc2ccccc2)CC1,inconclusive: -32.7% [inhibitor],–
O=C(CSc1nc2ccccc2c(=O)n1CC1CCCCC1)N1CCOCC1,–,"inconclusive [inhibitor, single point]"
CC1(C)C(=O)N(OCc2ccccc2)C(C)(C)C(=O)N1OCc1ccccc1,–,"inconclusive [inhibitor, partial curve]"
Cn1ccnc1Sc1ccc(/C=N/NC(=O)c2ccccc2[N+](=O)[O-])cc1[N+](=O)[O-],–,"inconclusive [inhibitor, single point]"
COC(=O)C[C@H]1c2cc(F)ccc2S(=O)(=O)N1C(C)C,–,"inconclusive [inhibitor, partial curve, poor fit]"
COc1ccc(C(OCC(O)CNC(C)c2ccccc2)c2ccc(OC)cc2)cc1 (stereo unspecified),–,"inconclusive [inhibitor, single point]"
CCOC(=O)C1(CC2CCCCO2)CCN(Cc2ccccc2-c2ccco2)CC1 (stereo unspecified),–,"inconclusive [inhibitor, single point]"
CC(C)CCOC(=O)/C(=C/c1ccco1)NC(=O)/C=C/c1ccccc1,inactive: 2.52%,–
Cc1ccccc1OC(=O)n1c(=S)oc2cc(Cl)ccc21,–,"inconclusive [inhibitor, single point]"
O=C(NNc1nc2ccccc2o1)c1ccccc1,inactive: -2.31%,–
COc1ccccc1CNc1nc2nc(C)c(Cl)c(C)n2n1,inactive: -21.5%,–
C/C(=N\NC(=O)c1ccc(-n2cnnn2)cc1)c1ccc(C)cc1,inactive: -2.81%,–
